# According to PubChem BioAssay AID2451 (National Center for Advancing Translational Sciences (NCATS), 2010):
# Screen size: about 290,000 compounds; about 2,100 (0.72%) were called active. The inconclusive results got no clear call from the source; some entries with a clear call stand among them for comparison. The call rests on the fitted dose curve; in most records, active means well fitted inhibition curve with a large enough effect; inconclusive means small, poorly fitted or top-dose-only effect, or effect the other way; inactive means flat fitted curve, though single readings scatter. Potencies beside an inconclusive call are fits to weak or partial responses and may not hold up.
# Target: Fructose-bisphosphate aldolase (Giardia intestinalis (strain ATCC 50803 / WB clone C6)) (UniProt A8B2U2)
# UniProt A8B2U2, sequence (A8B2U2 whole entry, looked up): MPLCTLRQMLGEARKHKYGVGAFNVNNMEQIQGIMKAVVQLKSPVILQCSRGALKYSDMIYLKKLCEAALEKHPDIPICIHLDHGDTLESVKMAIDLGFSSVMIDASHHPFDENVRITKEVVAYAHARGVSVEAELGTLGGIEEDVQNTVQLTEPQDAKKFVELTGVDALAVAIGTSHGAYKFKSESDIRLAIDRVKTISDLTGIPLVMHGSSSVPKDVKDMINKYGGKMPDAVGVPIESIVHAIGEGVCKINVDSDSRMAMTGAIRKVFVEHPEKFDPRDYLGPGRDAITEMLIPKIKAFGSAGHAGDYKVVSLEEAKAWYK
# Experiment: qHTS Assay for Inhibitors of Fructose-1,6-bisphosphate Aldolase from Giardia Lamblia; further: nearly all actives have a fitted effect of over 55% in size
# Details: purified Giardia FBPA; activity, negative = inhibition: at 59.6 µM (top of the series) unless noted
# How it was run: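 40 nM FBPA preincubated 10 min at RT with compound (up to 57.5 uM final), then substrate plus GAPDH/TPI/NAD/arsenate coupling and diaphorase/resazurin added. Fluorescence read after 20 min at RT, 525/598 nm.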
# On the % scale 0 is the no-effect control and ±100 the full control effect; potency means the concentration at half of the fitted maximal effect; tags describe the fitted curve by direction and shape.
SMILES,Potency,"activity, negative = inhibition"
O=C(O)CSc1nnc(-c2ccncc2)n1-c1ccc(Cl)cc1,"inconclusive: 19.9 µM [activator, single point]",–
CCOC(=O)C1CCN(Cc2ccc(OC)cc2OC)CC1,"inconclusive: 22.3 µM [inhibitor, single point]",–
O=c1c2ccccc2sn1-c1nccs1,"inconclusive: 8.89 µM [inhibitor, partial curve]",–
Cc1nc2nc(-c3ccccc3)[nH]n2c(=O)c1C,"inconclusive: 14.1 µM [inhibitor, partial curve]",–
O=C(CNc1ccc(Br)cc1)c1ccc(O)cc1,inactive,–
NNC(=S)Nc1cccc(Cl)c1,"inconclusive: 17.7 µM [inhibitor, single point]",–
O=C(Nc1ccccc1C(=O)N/N=C/c1ccco1)c1ccccc1Cl,"inconclusive: 17.7 µM [inhibitor, partial curve]",–
COc1ccc(COC(=O)N/N=C2/C[C@@H](O)[C@@H](O)[C@@H]3[C@H]4C(=O)N(c5ccc(F)cc5F)C(=O)[C@@H]4CC[C@H]23)cc1,–,inactive: -4.51% [at 12.9 µM]
CCCN(CC#CC(O)(c1ccccc1)c1cccnc1)CCC (centres undefined),"inconclusive: 15.8 µM [inhibitor, partial curve]",–
NC(=S)N/N=C/c1ccc(/C=N/NC(N)=S)cc1,inactive,–
Cc1nc2ccc(NC(=O)c3ccco3)cc2nc1C,inactive,–
COc1ccc2[nH]cc(CCNc3ncncc3-c3ccccc3Cl)c2c1,inactive,–
CCC(C)(C)NC(=O)Cc1ccc(F)cc1,inactive,–
Cc1ccc(S(=O)(=O)NNc2nnc(C)c(=O)[nH]2)cc1,"inconclusive: 15.8 µM [inhibitor, partial curve]",–
COc1cc(CN2CCCC(C(=O)c3sccc3C)C2)cc(OC)c1O (centres undefined),"inconclusive: 19.9 µM [inhibitor, partial curve]",–
O=C(Cc1ccccc1)N1CCN(Cc2cccc(Cl)c2)CC1,"inconclusive: 39.8 µM [inhibitor, single point]",–
Clc1ccc(CCNc2nc3ccccc3s2)cc1,inactive,–
CN1C(=O)C(Cl)(Cl)C(=O)c2ccccc21,active: 5 µM,–
COc1ccc(S(=O)(=O)NCCSC(C)(C)C)cc1Cl,"inconclusive: 31.5 µM [inhibitor, single point]",–
O=C(O)c1cccc(S(=O)(=O)N2Cc3ccccc3C2)c1,"inconclusive: 17.7 µM [activator, single point]",–
COc1ccc(C(=O)Nc2cc(Cl)ccc2C(=O)O)cc1,"inconclusive: 7.06 µM [inhibitor, partial curve]",–
O=C(OCc1nnc(-c2ccc(Cl)cc2)o1)c1ccncc1,inactive,–
CCC(C)(C)n1nnnc1C(c1cc2cc(C)ccc2[nH]c1=O)N1CCCc2ccccc21 (centres undefined),"inconclusive: 15.8 µM [inhibitor, single point]",–
Oc1ccc(N=Nc2c(O)ccc3ccccc23)cc1,"inconclusive: 14.1 µM [inhibitor, partial curve]",–
COc1ccc(Cc2c(O)[nH]c(=S)[nH]c2=O)cc1,active: 25.1 µM,–

SMILES,Potency,"activity, negative = inhibition"
COc1ccccc1NC(=O)C(C(C)C)N1C(=O)c2ccccc2C1=O (centres undefined),–,inconclusive: 35.1% [activator]
O=C(CSc1n[nH]c(-c2ccccc2O)n1)N1CCOCC1,"inconclusive: 14.1 µM [inhibitor, partial curve]",–
Cc1cc2c(NC3CCCCC3)ncnc2s1,"inconclusive: 11.2 µM [inhibitor, partial curve]",–
CCOc1[nH]c(/N=C/c2ccco2)c(C#N)c1C#N,"inconclusive: 15.8 µM [inhibitor, partial curve]",–
O=C(Nc1ccc(OC(=O)c2ccccc2)c(-c2nc3ccccc3s2)c1)c1ccccc1,inactive,–
O=C1CCN2C=Nc3cccc4ccc1c2c34,"inconclusive: 2.51 µM [inhibitor, full curve, poor fit]",–
O=C(NC1(C(F)(F)F)Oc2ccc(Cl)cc2O1)N1CCC2(CC1)OCCO2 (centres undefined),"inconclusive: 14.1 µM [inhibitor, partial curve]",–
CCOC(=O)c1nn(-c2ccc(C)cc2)c(=O)c2c(N)scc12,"inconclusive: 1.12 µM [inhibitor, full curve]",–
Cc1cc(C)c(N(Cc2ccccc2)S(=O)(=O)c2ccc(OCCNC(=O)c3cc4ccccc4o3)cc2)c(C(=O)NO)c1,inactive,–
CC(=O)Nc1ccc(N2CCCCC2)cc1,inactive,–
COc1ccc2cc3cc(C(=O)NCCCN4CCc5ccccc5C4)sc3nc2c1,"inconclusive: 11.2 µM [inhibitor, partial curve]",–
Nc1ccc(N2CCCCC2)c2nonc12,active: 1.99 µM,–
Brc1ccc(CN2CCN(Cc3c[nH]c4ccccc34)CC2)cc1,active: 14.1 µM,–
CCOC(=O)c1c(N)sc(-c2ccccc2)c1C,inactive,–
CC1CN(Cc2csc(-c3ccc(Cl)cc3)n2)CC(C)O1 (centres undefined),"inconclusive: 19.9 µM [inhibitor, partial curve]",–
O=C(NO)c1ccc(C(=O)N(C2CCCCC2)C2CCCCC2)cc1,"inconclusive: 17.7 µM [inhibitor, partial curve]",–
Cc1ccccc1NC(=O)C[n+]1cc(-c2ccccc2)n2c1CCC2,inactive,–
COC(=O)c1sc(NC(=S)NC(=O)c2cc(OC)c(OC)c(OC)c2)nc1C,active: 3.16 µM,–
Cc1ccc(NC2=C/C(=N/S(=O)(=O)c3cccs3)c3ccccc3C2=O)cc1C,"inconclusive: 0.354 µM [inhibitor, full curve]",–
COc1cc(S(=O)(=O)N2CCOCC2)ccc1NC(=O)COC(=O)CC12CC3CC(CC(C3)C1)C2,inactive,–
COc1ccc(CNCCCC(=O)Nc2c(Cl)ccc(C)c2Cl)cc1OC,"inconclusive: 14.1 µM [inhibitor, partial curve]",–
CCOC(=O)c1c(CSCc2ccccc2)oc2ccc(O)c(CN(C)C)c12,"inconclusive: 15.8 µM [inhibitor, single point]",–
Cc1cc(C)cc(NC(=O)c2cccc(C(=O)Nc3cc(C)cc(C)c3)n2)c1,inactive,–
CCCN(N=Nc1cccc([N+](=O)[O-])c1)c1cccc([N+](=O)[O-])c1,inactive,–
